Measured values as given in the RNAGym collection of RNA variant scans (doi:10.1073/pnas.2313332121).
This sample is rich in variants without activity.

B1: TPR 5TU (parent)
chain: GGAUCUUCUCGAUCUAACAAAAAAGACAAAUCUGCCACAAAGCUUGAGAGCAUCUUCGGAUGCAGAGGCGGCAGCCUUCGGUGGCGCGAUAGCGCCAACGUUCUCAACUAUGACACGCAAAACGCGUGCUCCGUUGAAUGGAGUUUAUCAUG

Variants of: B1
Experiment: polymerase ribozyme fitness, log enrichment relative to wild type (log ratio); higher = more active; in vitro selection for triplet polymerase activity
Procedure, shortened: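 The heterodimeric triplet polymerase ribozyme's subunits were each mutagenized into PCR-built libraries and transcribed. Every library was selected once, in triplicate, by annealing with a biotinylated primer, the partner subunit and triplets, incubating frozen at −7 °C, gel-excising extended constructs, capturing on streptavidin beads and running RT-PCR. Input and output libraries were Illumina-sequenced, with genotypes kept only at ≥10 input reads and ≥1 read per output. Fitness, from inverse-variance-weighted replicate averages, is the base-2 logarithm of genotype enrichment over wild-type enrichment.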

Point of comparison: U55A G92A, “polymerase ribozyme fitness (log ratio)” value -2.69. Against it:
- U55A C96U U127C U134C — lower, -3.3
- U55A C105A — higher, -0.692
- U55A C105G — higher, -1.73
- U55A C125A G141A — lower, -4.12
- U55A C149U — higher, -1.55
- U55A G58C — higher, -0.661
- U55A G58C U90C — lower, ≤ -4.2
- U55A G58U G59U C75G C85A C103G A115U — lower, ≤ -4.2
- U55A G59A C75U G92U C99G C129G U139G — lower, ≤ -4.2
- U55A G59A G100A G141C — lower, ≤ -4.2
- U55A G59C C72A C99G G141U — lower, ≤ -4.2
- U55A G59C C103U U104G — lower, -3.29
- U55A G62A A73G — lower, ≤ -4.2
- U55A G62A C69G G71A — lower, ≤ -4.2
- U55A G62C G71U C76A U77G C114U A121C — lower, ≤ -4.2
- U55A G65A C103A — lower, ≤ -4.2
- U55A G67A G71U — lower, ≤ -4.2
- U55A G67A U127A — lower, ≤ -4.2
- U55A G68A — lower, -3.21
- U55A G68A U77A U135G — lower, ≤ -4.2
- U55A G68C C99A A150U — lower, ≤ -4.2
- U55A G68C U78G C108G U139A — lower, ≤ -4.2
- U55A G68C U135C — lower, ≤ -4.2
- U55A G70A C76U G92U C99U A138C G140A — lower, ≤ -4.2
- U55A G70C G94A C116G — lower, ≤ -4.2
- U55A G71A A91G C123U G136C — lower, ≤ -4.2
- U55A G71A G80A G81A G86C C99U C116U G136C — lower, ≤ -4.2
- U55A G71A G81C C95G C125U — lower, ≤ -4.2
- U55A G71C A106U C125A — lower, ≤ -4.2
- U55A G71U C96G G143C C149U — lower, ≤ -4.2
- U55A G74A C75U — lower, ≤ -4.2
- U55A G74A G83C A91C A113U — lower, ≤ -4.2
- U55A G80A C85A — higher, -1.39
- U55A G81A — higher, -1.9
- U55A G81A C93U C105A C118U — lower, -3.74
- U55A G81A G86A U109G A150G — lower, ≤ -4.2
- U55A G81C A107G — lower, ≤ -4.2
- U55A G81C C85G U104G A106G U130G — lower, ≤ -4.2
- U55A G83A — higher, -0.501
- U55A G83A G124A — higher, -0.748
- U55A G83A U90A G92A A98U G140C — lower, ≤ -4.2
- U55A G83U A106U — lower, ≤ -4.2
- U55A G84A — higher, -1.01
- U55A G84A G86A C93U C105U — higher, -1.1
- U55A G84A G117U U145G — lower, ≤ -4.2
- U55A G84A G143A — higher, -0.776
- U55A G84U A113C — lower, -3.62
- U55A G86A G88C A89U G143U — lower, ≤ -4.2
- U55A G86U A91U G133U A147U — lower, ≤ -4.2
- U55A G88A C125U G126A — lower, ≤ -4.2
- U55A G92A A110U C123G — lower, ≤ -4.2
- U55A G92A C125A — lower, -3.46
- U55A G92U C96A A119C A121C A142C — lower, ≤ -4.2
- U55A G92U G124U G141C — higher, -1.14
- U55A G94C C103G — lower, ≤ -4.2
- U55A G94C G100C A106U A115U — lower, ≤ -4.2
- U55A G100C G126U G128C — lower, ≤ -4.2
- U55A G100U C125G — lower, ≤ -4.2
- U55A G126C — higher, 1.42
- U55A G126U G140U A142C — lower, ≤ -4.2
- U55A G141A G143U U144G — lower, ≤ -4.2
- U55A G141C — higher, -0.199
- U55A U56A A66C G70C C108U — lower, ≤ -4.2
- U55A U56A C69U C79U G86A A91U A106C A121G C125U A142C — lower, ≤ -4.2
- U55A U56A C87G G141U — lower, ≤ -4.2
- U55A U56A G58C U78A G92A — lower, ≤ -4.2
- U55A U56A G59A — higher, 0.199
- U55A U56A G80U U111A — lower, ≤ -4.2
- U55A U56A G92U A97U A98G A110U — lower, ≤ -4.2
- U55A U56A U78C G83U A89U — higher, -0.955
- U55A U56C G84U G92A A110G — lower, ≤ -4.2
- U55A U56G C69U G80U C96G — lower, ≤ -4.2
- U55A U56G C75G — lower, -4.19
- U55A U61A C76G U77A G94C U146A — lower, ≤ -4.2
- U55A U61A C85U C99G C108G — lower, ≤ -4.2
- U55A U61G G92A A106C C123A G143C — lower, ≤ -4.2
- U55A U77A A98G — lower, ≤ -4.2
- U55A U77A G80C C103A A110G G126U — lower, ≤ -4.2
- U55A U78A C85U C93U — lower, ≤ -4.2
- U55A U82G C96G C116U G140C — lower, -4.17
- U55A U82G U109C — lower, ≤ -4.2
- U55A U90C C95U U146C C149A — lower, ≤ -4.2
